# Laboratory results: PMC4336329 (PLoS ONE, 2015)
# Hit rate of the full screen: of about 310,000 compounds, about 2,200 (0.71%) showed an effect of 50% or more. The effect is printed as a negative number. Some of the results follow.
# Target: human ether-à-go-go-related gene (hERG) potassium channel (human, UniProt Q12809)
# Assay: primary screen, population patch clamp on CHO cells stably expressing hERG
# human ether-à-go-go-related gene (hERG) potassium channel, sequence (Q12809 whole entry, looked up): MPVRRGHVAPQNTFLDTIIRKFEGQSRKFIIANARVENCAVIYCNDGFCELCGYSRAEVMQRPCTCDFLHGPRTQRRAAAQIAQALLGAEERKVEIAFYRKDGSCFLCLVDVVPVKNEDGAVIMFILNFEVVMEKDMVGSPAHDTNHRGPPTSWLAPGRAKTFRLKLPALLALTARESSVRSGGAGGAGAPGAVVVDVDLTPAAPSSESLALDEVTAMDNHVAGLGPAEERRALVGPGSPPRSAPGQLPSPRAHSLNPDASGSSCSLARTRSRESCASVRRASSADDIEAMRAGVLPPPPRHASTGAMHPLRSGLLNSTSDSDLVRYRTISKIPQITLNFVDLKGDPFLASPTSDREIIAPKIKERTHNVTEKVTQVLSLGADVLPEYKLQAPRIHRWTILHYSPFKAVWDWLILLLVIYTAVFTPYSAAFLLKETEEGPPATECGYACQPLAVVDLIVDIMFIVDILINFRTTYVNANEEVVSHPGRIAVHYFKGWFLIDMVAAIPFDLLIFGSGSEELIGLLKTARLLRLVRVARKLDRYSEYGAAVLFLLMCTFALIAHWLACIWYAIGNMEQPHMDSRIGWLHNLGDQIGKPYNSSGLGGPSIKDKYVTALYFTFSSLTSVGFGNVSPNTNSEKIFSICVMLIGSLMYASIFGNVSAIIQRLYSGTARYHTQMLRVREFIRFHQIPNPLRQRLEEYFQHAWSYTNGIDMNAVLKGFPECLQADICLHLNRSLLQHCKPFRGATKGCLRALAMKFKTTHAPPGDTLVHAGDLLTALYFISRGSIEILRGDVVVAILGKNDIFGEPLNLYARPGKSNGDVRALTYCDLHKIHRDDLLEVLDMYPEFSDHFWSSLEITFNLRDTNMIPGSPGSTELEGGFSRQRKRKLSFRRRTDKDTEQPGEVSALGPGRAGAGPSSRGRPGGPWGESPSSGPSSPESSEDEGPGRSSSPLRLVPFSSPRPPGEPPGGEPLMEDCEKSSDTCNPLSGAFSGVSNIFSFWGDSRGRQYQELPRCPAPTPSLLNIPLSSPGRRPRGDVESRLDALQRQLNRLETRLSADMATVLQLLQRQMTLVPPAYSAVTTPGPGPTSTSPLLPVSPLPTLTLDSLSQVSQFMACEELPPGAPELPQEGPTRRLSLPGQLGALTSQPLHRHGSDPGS
row,SMILES,"hERG current change (%, negative = inhibition) at 1uM [%]"
1,O=C(O)Cn1nnc(-c2ccc(OCc3ccccc3Cl)cc2)n1,19.4
2,CN(C)CCCNc1ccc(-c2n[nH]c(=O)c3ccccc23)cc1[N+](=O)[O-],13
3,CC(=O)c1sc(NC(=O)CCCc2nc3ccccc3c(=O)[nH]2)nc1-c1ccccc1,12.2
4,O=C(CCn1c(=S)[nH]c2ccccc2c1=O)NCCCN1CCOCC1,-0.109
5,Cc1cccc(CN2CCN(C(=O)CCl)CC2)c1,7.13
6,Cc1ccc2c(c1)C=CC(C)(C)S2=O (centres unmarked),14.8
7,CC(C)CC(=O)Nc1cc2nn(-c3ccccc3)nc2cc1Cl,-0.947
8,CCOC(=O)C1=C(C)Nc2nc(C)nn2C1c1ccc(OCC)c(OC)c1 (centres unmarked),11.4
9,Cc1cnc(NC(=O)CSc2nnc(-c3ccc(Cl)cc3Cl)n2N)s1,-0.0109
10,O=C(NCc1cccs1)C12CC3CC(CC(C3)C1)C2,13.3
11,COc1ccccc1CN(C)C(=O)C(c1ccccc1)c1ccccc1,5.39
12,O=C(Nc1ccc(N2CCCCC2)cc1)c1cncc(Br)c1,17.7
13,C/C=C/C(=O)OCc1csc(CC(=O)Nc2ccccc2C)n1,10.5
14,c1ccc(COn2c(-c3ccccc3)nc3c2CCc2nonc2-3)cc1,15.7
15,COC(=O)C1CCN(S(=O)(=O)CCNC(=O)c2cccc(OC)c2)CC1,-1.58
16,COc1cccc(NC(=O)COC(=O)CCOc2ccccc2OC)c1,2.42
17,Cc1ccc(NC(=O)c2ccc(N3CCCC3=O)cc2)cc1S(=O)(=O)N1CCCCC1,5.81
18,CN(C)S(=O)(=O)c1ccc(NC(=O)Cn2ccsc2=N)cc1,12.4
19,Cc1ccc(NC(=O)c2sc3nc(N4CCOCC4)c4c(c3c2N)CC(C)(C)OC4)cc1,9.91
20,Cc1ccc(NS(=O)(=O)c2ccc(CCC(=O)NCCCOC(C)C)cc2)cc1,15.2
21,O=C(NCc1ccncc1)C12CC3CC(CC(C3)C1)C2,5.26
22,Cc1ccc(S(=O)(=O)N(C)C)cc1-n1c(SCC(=O)Nc2ccc(F)cc2Cl)nc2ccccc2c1=O,2.16

row,SMILES,"hERG current change (%, negative = inhibition) at 1uM [%]"
1,c1ccc(OCc2noc(CN3CC[C@@H]4CCCC[C@H]4C3)n2)cc1,6.6
2,O=C(NCC(c1cccnc1)N1CCN(c2ccc(F)cc2)CC1)c1ccco1 (centres unmarked),4.97
3,OCCC1CN(Cc2cccnc2)CCN1CCc1ccccc1 (centres unmarked),1.79
4,Cc1nnc(SCC(=O)Nc2cccc(Br)c2)s1,1.84
5,COc1ccc(/C=C/C(=O)OCC(=O)NCc2ccco2)cc1OC,0.173
6,Cn1c(NC(=O)C[n+]2cc(-c3ccc(F)cc3)n3c2CCC3)cc(=O)n(C)c1=O.[Cl-],2.56
7,CCCOc1ccc(C2=NNC(=O)CC2)cc1,14
8,O=C(CCn1cnc2ncccc2c1=O)N1CCN(c2cccc(Cl)c2)CC1,6.47
9,CCOC(=O)c1c(C)[nH]c(C)c1C(=O)COC(=O)c1ccc(OC)c(OC)c1,7.01
10,CC1CC1C(=O)OCC(=O)Nc1ccc2[nH]c(=O)[nH]c2c1 (centres unmarked),9.05
11,C=CCC1(CC=C)CCCN1C(=O)C1CCC(=O)N(CCc2ccccc2)C1 (centres unmarked),2.74
12,COc1ccccc1/C=N/NS(=O)(=O)c1ccccc1,12.7
13,COc1ccc(C(CC(=O)Nc2ccc(C)cc2)NC(=O)C(F)(F)F)cc1 (centres unmarked),-0.507
14,CCOC(=O)/C(=C/c1ccc(OC(=O)c2ccccc2)cc1)C(C)=O,7.36
15,COc1cccc(/C=N/N=C(\N)c2nonc2N)c1O,13.8
16,Cc1cc(N)nc(C)c1C#N,4.27
17,O=C(NCCc1ccccc1)c1cc2ccccc2oc1=O,5.96
18,NC(=O)C1CCN(C2=C(NS(=O)(=O)c3ccc(Br)cc3)C(=O)c3ccccc3C2=O)CC1,-22.5
19,O=C(Nc1ccccc1)Nc1nnc(SCc2ccc(Cl)cc2)s1,11.9
20,O=C(COC(=O)c1ccncc1)c1ccccc1,11.1
21,Cc1snc(S(=O)(=O)/C(C#N)=N/Nc2ccc(C(F)(F)F)cc2)c1C#N,22.5
22,Cc1cc(C)cc(C(=O)Nc2c3c(nn2C(C)(C)C)CS(=O)(=O)C3)c1,7.45
